The whole screen tested about 310,000 compounds, of which about 14,000 (4.5%) showed an effect of 50% or more. Effects have a minus sign here. The list shows a part of the results.
The compounds below were run against human ether-à-go-go-related gene (hERG) potassium channel (human, UniProt Q12809) (assay: primary screen, population patch clamp on CHO cells stably expressing hERG).
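Also: peak tail current of the secondary pulse compared with the same well before compound.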

Sequence of human ether-à-go-go-related gene (hERG) potassium channel (Q12809 whole entry, looked up): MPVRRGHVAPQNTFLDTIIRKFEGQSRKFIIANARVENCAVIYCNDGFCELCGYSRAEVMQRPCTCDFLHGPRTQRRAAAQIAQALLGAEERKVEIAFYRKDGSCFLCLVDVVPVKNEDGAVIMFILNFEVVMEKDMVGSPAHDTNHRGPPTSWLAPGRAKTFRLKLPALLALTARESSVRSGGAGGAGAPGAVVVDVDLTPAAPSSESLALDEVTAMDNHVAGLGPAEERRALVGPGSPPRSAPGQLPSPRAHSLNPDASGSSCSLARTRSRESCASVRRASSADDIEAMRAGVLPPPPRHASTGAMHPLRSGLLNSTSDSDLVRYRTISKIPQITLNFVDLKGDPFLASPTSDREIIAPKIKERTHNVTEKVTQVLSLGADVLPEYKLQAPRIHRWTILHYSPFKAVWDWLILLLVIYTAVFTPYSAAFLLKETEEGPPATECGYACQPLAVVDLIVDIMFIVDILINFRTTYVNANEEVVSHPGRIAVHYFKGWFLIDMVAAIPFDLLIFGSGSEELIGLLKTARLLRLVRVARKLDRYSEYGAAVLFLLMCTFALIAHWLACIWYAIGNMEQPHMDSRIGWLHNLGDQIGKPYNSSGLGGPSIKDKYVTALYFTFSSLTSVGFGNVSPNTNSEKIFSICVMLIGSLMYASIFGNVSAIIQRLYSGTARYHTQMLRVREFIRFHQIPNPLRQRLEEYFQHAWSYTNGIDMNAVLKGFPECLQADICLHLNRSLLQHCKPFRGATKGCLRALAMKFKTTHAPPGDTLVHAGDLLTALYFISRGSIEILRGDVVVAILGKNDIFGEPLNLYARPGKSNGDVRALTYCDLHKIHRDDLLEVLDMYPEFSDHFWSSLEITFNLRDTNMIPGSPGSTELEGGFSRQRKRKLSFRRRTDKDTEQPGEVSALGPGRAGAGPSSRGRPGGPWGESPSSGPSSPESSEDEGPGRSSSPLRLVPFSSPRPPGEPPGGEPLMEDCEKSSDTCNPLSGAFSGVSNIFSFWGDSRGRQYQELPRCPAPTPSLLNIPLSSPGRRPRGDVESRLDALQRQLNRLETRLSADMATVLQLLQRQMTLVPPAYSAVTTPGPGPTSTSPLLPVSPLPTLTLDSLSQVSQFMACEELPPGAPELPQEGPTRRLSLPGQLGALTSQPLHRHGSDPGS

Compared with O=C(Nc1ccccc1N1CCCCC1)c1ccc2nccnc2c1, COc1ccc(OC)c(C2=NOC(C(=O)N3CCN(c4ccccc4)CC3)C2)c1 (stereo not shown) is lower in “hERG current change (%, negative = inhibition) at 10uM” value: -11.8% for the first, -19.1% for the second.

Compared with Cc1ccc(CNC(=O)CN(c2ccc(C(C)C)cc2)S(=O)(=O)c2c(C)noc2C)cc1, CCN(CC)S(=O)(=O)c1ccc(NC(=O)CSc2ncnc3ccccc23)cc1 is lower in “hERG current change (%, negative = inhibition) at 10uM” value: 7.25% for the first, -8.71% for the second.

Compared with C#CCN1N=C(c2ccc(C)cc2)CSC1=O, Cc1ccc(N2CC(=O)Nc3c(sc4nc(C)cc(C)c34)C2=O)cc1 is lower in “hERG current change (%, negative = inhibition) at 10uM” value: 13.9% for the first, 6.8% for the second.

First: COc1cc(/C=C2\C(C)=C(C#N)c3nc(N)c(C#N)c(C)c32)ccc1OCC(=O)O
Second: Cc1cc(NC(=O)COc2c(C)cccc2C)no1
The “hERG current change (%, negative = inhibition) at 10uM” value of the first is lower: 11.1% for the first, 22.3% for the second.

Compared with FC(F)Oc1ccc(NC(=S)N2CCN(Cc3ccccc3)CC2)cc1, COc1ccc(S(=O)(=O)NCC(c2cccnc2)N2CCN(Cc3ccccc3)CC2)cc1 (stereo not shown) is lower in “hERG current change (%, negative = inhibition) at 10uM” value: -56% for the first, -58.5% for the second.

First: COc1cccc(CN2C(=O)N(C(C)C)C(N(O)C(=O)NC(C)C)C2(C)C)c1OC (stereo not shown)
Second: C=CCc1cccc2cc(C(=O)NCCOC)c(=O)oc12
The “hERG current change (%, negative = inhibition) at 10uM” value of the first is higher: 16.2% for the first, -21.7% for the second.

First: C=CCNC(=O)C1CC2Cn3c(nc4cc(Cl)c(Cl)cc43)C2N1C (stereo not shown)
Second: Cc1nc(C(=O)N(C)C)nn1-c1ccc(Cl)cc1Cl
The “hERG current change (%, negative = inhibition) at 10uM” value of the first is lower: -35.4% for the first, 10.3% for the second.

Compared with O=C([O-])c1cc([N+](=O)[O-])ccc1Nc1ccccc1.[Na+], O=[N+]([O-])c1cccc(-c2ccc(/C=N/NC(=S)Nc3ccccc3)o2)c1 is higher in “hERG current change (%, negative = inhibition) at 10uM” value: -1.84% for the first, 19.5% for the second.

Compared with CCC(=O)c1ccc(OCC(=O)OCC(=O)N2c3ccccc3CC2C)cc1 (stereo not shown), CCOc1ccccc1NC(=O)C(NCCc1ccc(OC)cc1)c1ccccc1 (stereo not shown) is higher in “hERG current change (%, negative = inhibition) at 10uM” value: -11.8% for the first, -4.48% for the second.

Going from Cc1cc(CNC(=O)C2CCC(=O)N(Cc3ccccc3F)C2)on1 (stereo not shown) to CCOCCCNC(=O)C1CCCN(S(=O)(=O)c2cccc3nsnc23)C1 (stereo not shown), the “hERG current change (%, negative = inhibition) at 10uM” value rises from 9.42% to 17.9%.

Going from COc1ccc([N+](=O)[O-])cc1/C=N/Nc1nn[nH]n1 to COc1ccc(/C=C/C(=O)Nc2ccc3nc4n(c(=O)c3c2)CCCC4)cc1, the “hERG current change (%, negative = inhibition) at 10uM” value rises from 19.1% to 22.7%.

First: CCOC(=O)C1CCCN(c2ccc(NC(=O)c3snc4c(=O)[nH]c(C)nc34)cc2)C1 (stereo not shown)
Second: CCC(=O)Nc1c(C(=O)N2CCCCCC2)cnn1-c1ccc(C)c(C)c1
The “hERG current change (%, negative = inhibition) at 10uM” value of the first is higher: 0.303% for the first, -12.7% for the second.

Going from Cn1c(SCC(=O)N(Cc2ccccc2)C(C)(C)C)nc2ccccc21 to Cc1ccccc1NC(=O)N(CCc1nc2ccccc2[nH]1)Cc1ccccc1, the “hERG current change (%, negative = inhibition) at 10uM” value falls from 0.986% to -12.9%.

Compared with O=C(CCCCCNC(=O)c1ccccc1)N/N=C/c1ccc(F)cc1, Cc1cc2ccccn2c1C(=O)c1ccc(F)cc1 is higher in “hERG current change (%, negative = inhibition) at 10uM” value: -18.8% for the first, 3.86% for the second.

Going from CC(NC(=O)c1ccncc1)C(c1cccs1)N1CCOCC1 (stereo not shown) to COCC(C)OC(=O)c1c(N)n(CCCN2CCOCC2)c2nc3ccccc3nc12 (stereo not shown), the “hERG current change (%, negative = inhibition) at 10uM” value falls from -3.52% to -9.69%.

Compared with CCc1nnc(NS(=O)(=O)c2ccc(NC(=S)NC(=O)/C=C/c3ccc(F)cc3)cc2)s1, Cc1cccc2cc(CN(CCN(C)C)C(=S)Nc3ccccc3)c(=O)[nH]c12 is lower in “hERG current change (%, negative = inhibition) at 10uM” value: 6.15% for the first, -24% for the second.

First: C/C(=N\NC(=O)c1ccc2c(c1)OCO2)c1ccc2c(c1)OCO2
Second: Cc1cc(NC(=O)Cn2nc3c(cc2=O)CCCC3)ccc1Br
The “hERG current change (%, negative = inhibition) at 10uM” value of the first is higher: 13.2% for the first, -4.02% for the second.

First: O=C(O)COCc1nc2ccccc2[nH]1
Second: C(=C\n1nnc2ccccc21)/c1ccc[nH]1
The “hERG current change (%, negative = inhibition) at 10uM” value of the first is lower: -6.31% for the first, 3.8% for the second.

Going from CCOC(=O)C(=O)NC1CCSC1=O (stereo not shown) to O=C(c1ccco1)N1CCN(S(=O)(=O)c2ccc(S(=O)(=O)NC3CCCCC3)cc2)CC1, the “hERG current change (%, negative = inhibition) at 10uM” value falls from -0.865% to -43.8%.

Going from CC(=NCCCN(C)C)C1=C(O)c2ccccc2C1=O to Cc1ccccc1OCC(O)CN1CCN(c2ccccn2)CC1.Cl (stereo not shown), the “hERG current change (%, negative = inhibition) at 10uM” value falls from -14.5% to -48.8%.

Compared with O=C(CN1C(=O)NC(c2ccccc2)(c2ccccc2)C1=O)Nc1cccnc1Cl, Clc1ccc(Sc2cc(Cl)c(-c3ccccc3)nn2)cc1 is higher in “hERG current change (%, negative = inhibition) at 10uM” value: -31.4% for the first, 0.12% for the second.

For CCCc1[nH]nc2c1C1(CCOC1C)C(C#N)=C(N)O2 (stereo not shown), the “hERG current change (%, negative = inhibition) at 10uM” value was 4.44%.

Reference: article PMC4336329 (PLoS ONE, 2015)
